Experimental data taken from patent US8858962B2, “Adjuvant or pharmaceutical preparation for transdermal or transmucosal administration” (priority 2005, dated 2014).

Test system: influenza H3N2
Experiment: Antibody titer after influenza H3N2 antigen with LA, transnasal or intradermal (FIG. 6)

CCCCCCCCCCCCO [Lauryl alcohol, lauryl alcohol]
adjuvant effect, intradermal administration (influenza H3N2 0.07 μg/head, antigen solution:LA:Tween 80 1:1:0.01, intradermal): adjuvant effect of LA was observed | antibody titer, transnasal administration (influenza H3N2 1 μg/head, antigen solution:LA:Tween 80 9:1:0.05, dropwise to the nose, compared with the antigen on its own): the antibody titer increased
